Out of some 320,000 compounds screened, about 3,100 (0.97%) were called active. The inconclusive results got no clear call from the source; some entries with a clear call stand among them for comparison.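 Rule for the calls: active = mean replicate inhibition of at least 70% and a set share of replicates each scoring 70 or more; inconclusive = meets just one of the two criteria; inactive = fails both criteria.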
molecular target: Scavenger receptor class B member 1 (Mus musculus) (UniProt Q61009); test: inhibitors of SR-BI mediated HDL lipid uptake, primary screen, ldlA[mSR-BI] cells, fluorescence, single point (AID 488896); details: ldlA[mSR-BI] CHO cells, DiI-HDL uptake fluorescence, 3 h; at 12.5 µM; stronger effect = higher value;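 note: 0% = median of neutral control wells and 100% = median of positive control wells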
UniProt Q61009, sequence (Q61009 whole entry, looked up): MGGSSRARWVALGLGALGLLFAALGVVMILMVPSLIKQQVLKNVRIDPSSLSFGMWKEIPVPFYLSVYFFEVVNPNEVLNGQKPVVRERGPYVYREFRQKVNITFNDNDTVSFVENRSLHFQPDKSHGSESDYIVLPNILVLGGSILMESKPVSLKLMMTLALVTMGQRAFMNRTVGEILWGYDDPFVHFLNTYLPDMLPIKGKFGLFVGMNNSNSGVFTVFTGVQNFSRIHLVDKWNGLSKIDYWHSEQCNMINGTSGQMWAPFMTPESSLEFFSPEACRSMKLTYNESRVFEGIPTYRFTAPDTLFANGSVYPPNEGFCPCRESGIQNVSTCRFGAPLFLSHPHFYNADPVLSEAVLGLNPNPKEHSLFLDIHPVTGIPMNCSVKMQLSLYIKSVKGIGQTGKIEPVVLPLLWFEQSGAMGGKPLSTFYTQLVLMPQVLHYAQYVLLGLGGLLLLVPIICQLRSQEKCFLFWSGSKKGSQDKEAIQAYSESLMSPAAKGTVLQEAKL

Row | Structure (SMILES) | inhibition
1 | Cc1ccc(C)c(N2CCN(CCCNC(=O)Cn3c(=O)c4cccn4c4cccnc43)CC2)c1 | inconclusive: 70.2%
2 | Cn1nc(-c2ccc(C(=O)Nc3ccc(F)cc3)cc2)c2ccccc2c1=O | inconclusive: 73.8%
3 | CCCN(C(=O)COC(=O)c1[nH]c(C)c(C(=O)OC)c1C)c1c(N)n(Cc2ccccc2)c(=O)[nH]c1=O | inconclusive: 73.3%
4 | Brc1ccc(/C=N/N2CCN(C3c4ccccc4-c4ccccc43)CC2)s1 | inconclusive: 81.1%
5 | NC(=O)C1CCN(c2nc3ccccc3nc2NS(=O)(=O)c2ccc(Br)cc2)CC1 | inactive: 5.04%
6 | CCOC(=O)c1oc2ccccc2c1NC(=O)COc1ccc(F)cc1 | inconclusive: 71%
7 | COc1ccc(-c2cc(C(=O)OCC(=O)N3CCCCC3)c3ccccc3n2)cc1OC | inconclusive: 73.9%
8 | COc1cc(C(=O)OCc2csc(CC(=O)Nc3ccccc3C)n2)ccc1OCC(C)C | inconclusive: 70.1%
9 | CCCCNc1c(-c2ccc(-c3ccc(C(C)=O)cc3)c(OC)c2)nc2cnccn12 | active: 73.5%
10 | Cc1nc2c(c3c1[nH]c1ccccc13)C(=O)CC(C)(C)C2 | inactive: 27.8%
11 | COc1ccc(OC)c(-c2csc(NC(=O)C3=NN(c4ccccc4)C(=O)CC3)n2)c1 | inconclusive: 71%
12 | Cc1cccc(NC(=O)c2ccc3c(=O)n(CC4CCCO4)c(=S)[nH]c3c2)c1 (centres undefined) | inconclusive: 74.3%
13 | CCc1ccccc1NC(=O)NNC(=O)c1ccc2ccccc2c1O | inactive: -14.1%
14 | COC(=O)c1c(NC(=O)C2CC2)sc(C(=O)Nc2ccccc2)c1C | inactive: 69.2%
15 | O=C(Nc1ccccc1)N1CCC(C(=O)N2CCN(Cc3ccccc3)CC2)CC1 | inconclusive: 70.2%
16 | CCN1/C(=C\C=C2\C(=O)N(c3ccccc3)C(=S)N2C)Sc2ccccc21 | inconclusive: 77.3%
17 | O=C(Nc1cccc(S(=O)(=O)N2CCOCC2)c1)C1CCN(S(=O)(=O)c2ccccc2)CC1 | inconclusive: 76.1%
18 | Cc1ccc(N2CCN(S(=O)(=O)N3CCCCC3)CC2)cc1C | inactive: 1.66%
19 | CCOC(=O)N1CCC(NC(=O)c2ccc3c(Cl)c4c(nc3c2)CCCC4)CC1 | inconclusive: 80.8%
20 | CCCN(CCC)S(=O)(=O)c1ccc(NC(=O)c2cc(C(=O)OC)cc([N+](=O)[O-])c2)cc1 | inconclusive: 71.5%
21 | NC(=S)NN=C1CCCCCCCCCC1 | active: 75.8%
22 | COc1ccc(-c2csc(N(CC3CCCO3)C(=O)c3ccc(C)cc3)n2)cc1 (centres undefined) | active: 76.6%
23 | C=CCc1cccc(/C=N/NC(=O)c2ccc3nc[nH]c3c2)c1O | inconclusive: 72.2%
24 | O=C(NNC(=O)c1ccc[nH]1)Nc1cccc(C(F)(F)F)c1 | inactive: 8.11%
25 | Cc1cc(=O)oc2cc(OCC(=O)NCCCn3ccnc3)ccc12 | inactive: 5.31%
26 | COc1ccccc1C(CC(=O)Nc1ccccc1C)c1ccc(OC(C)C)cc1 (centres undefined) | inconclusive: 82.1%
27 | COc1cc(NS(=O)(=O)N2CCCC2)cc(OC)c1OC | inconclusive: 70.4%

Row | Structure (SMILES) | inhibition
28 | CC1(C)c2[nH]c3ccccc3c2C[C@@H]2C(=O)N(Cc3ccccc3)C(=O)N21 | inconclusive: 70.2%
29 | CCOC(=O)c1c(C)[nH]c(C(=O)OCC(=O)N2CCN(S(=O)(=O)c3ccc(C)cc3C)CC2)c1C | inconclusive: 74.3%
30 | C/C(=N\Nc1cc(C)nc(NCc2ccccc2)n1)c1ccc([N+](=O)[O-])cc1 | active: 85.7%
31 | O=C(NCC(=O)N1CCN(c2ccccc2O)CC1)c1ccc2ccccc2c1 | inconclusive: 71.4%
32 | O=C(Nc1ccc(F)cc1)C1CC(=O)n2c(nc3ccccc32)N1 (centres undefined) | inactive: -17.3%
33 | COc1ccc2c(c1)[nH]c1c(=O)n(/N=C/c3ccc(OC)c(CN4CCCCC4)c3)cnc12 | inactive: -22.9%
34 | CC1CN(C(=O)c2cc(S(=O)(=O)N3CCCC3)ccc2Cl)CC(C)O1 (centres undefined) | inactive: 4.84%
35 | Cc1cc(/C=N/NC(N)=S)c(C)n1-c1ccc(Br)cc1 | inconclusive: 71%
36 | CC[C@@H](C)[C@H](CNC)NC[C@@H](Cc1cccc2ccccc12)NCCc1cccc(C(F)(F)F)c1 | inactive: -38%
37 | CCCCOc1ccccc1NC(=O)CC1SC(=NCC)N(CC)C1=O (centres undefined) | active: 83.6%
38 | CCOc1ccc(NC(=O)c2ccc(NC(=O)CSc3nc4ccccc4c(=O)[nH]3)cc2)cc1 | inconclusive: 70.7%
39 | O=C(O)c1ccc(CNCc2ccccc2F)cc1 | inactive: -3.51%
40 | O=[N+]([O-])c1ccc(N2CCCC2)cc1NC(c1ccccc1)c1ccccc1 | inconclusive: 70.9%
41 | CCC1CCC(NC(=O)Nc2cccc(OC)c2)CC1 (centres undefined) | inactive: 7.27%
42 | COc1ccccc1CNC(=O)c1nn(C)c2c1CS(=O)(=O)c1ccccc1-2 | inconclusive: 74%
43 | CCn1c(O)c(/C=N/NC(=O)c2ccncc2)c(=O)n(CC)c1=S | active: 74.2%
44 | Cc1ccc(NC(=O)c2cc(Cl)nc3ccccc23)cc1 | inactive: 7.25%
45 | O=C(Nc1cccc(NC(=O)c2ccc(-c3ccc(Br)cc3)o2)c1)c1ccccc1 | inconclusive: 75.2%
46 | Cc1ccc(C(=O)NCCN2CCN(C(=O)c3ccc(C)c(C)c3)CC2)cc1C | inconclusive: 70.7%
47 | CCOc1ccccc1NC(=O)c1ccc(OCC)c([N+](=O)[O-])c1 | inconclusive: 72.8%
48 | COc1cccc(-c2c(C(=O)N/N=C/c3ccoc3)nnn2-c2nonc2N)c1 | inactive: 11.3%
49 | Cc1nc(NCc2cccnc2)c2c3c(sc2n1)CC(C)CC3 (centres undefined) | inconclusive: 70.6%
50 | CC1CCN(C(=O)C(C)Sc2nc(-c3ccccc3)cc(C(F)(F)F)n2)CC1 (centres undefined) | active: 86.9%
51 | O=C(NC1CC(=O)N(c2ccc3c(c2)OCCO3)C1)N1CCC(O)CC1 (centres undefined) | inactive: -19.7%
52 | CCc1sc(C(=O)Nc2ccc(OC)c(S(=O)(=O)N3CCOCC3)c2)cc1C | inconclusive: 72%
53 | CC1CCCN(c2ccc([N+](=O)[O-])cc2C(=O)c2ccccc2)C1 (centres undefined) | inconclusive: 75.8%
54 | COc1ccc(N2CCN(C(=O)C(=O)c3cn(CC(=O)N4CCCCCC4)c4ccccc34)CC2)cc1 | inconclusive: 71.4%

Source: PubChem BioAssay AID488896 (Broad Institute, 2010)
